In PMC12040169 (PLOS Biology, 2025):
The list shows a part of the results.

System: T1, C. trachomatis L2/434/Bu expressing GFP (CTL2-GFP)
T1 construct: L2/434/Bu GFP intracellular growth in HeLa cells
Design: species or system HeLa; C. trachomatis total inclusion area by high-content imaging, normalised to DMSO
Details: total inclusion area; 28.5 h, 10 µM; inhibitor
Excerpt: In this process, we also complemented the assay described above with an imaging-based readout (Fig 1B). After measurements of bulk GFP and resorufin fluorescence, cells were fixed, stained with the DNA dye Hoechst, and imaged at a high-content imaging platform to detect chlamydial inclusions (GFP) and host cell nuclei (Hoechst). The total area and number of inclusions in individual wells and the number of nuclei then served as additional proxies for chlamydial growth and host cell viability. […] MICs were calculated as described above.

SMILES	% of control remaining
O=C(NCC(c1cccnc1)N1CCOCC1)c1cnc(-c2ccc(Cl)cc2)c(-c2ccco2)c1 (stereo not drawn) [CBK037554]	144.534
Fc1ccccc1-c1nccnc1NCc1cccs1 [CBK038088]	142.56
CCc1nn(CCN2CCCC2)c(=O)c2cc3sc(C)cc3n12 [CBK284098]	90.5922
CC(C)c1ccc(S(=O)(=O)Nc2ccc(O)c(Sc3nc[nH]n3)c2)cc1 [CBK266861]	96.1358
CS(=O)(=O)Nc1ccc(CC#N)cc1 [CBK038145]	28.8908
CN(C(=O)C1CC1)C1CCN(c2ncnc3ccccc23)CC1 [CBK304946]	57.3747
Cc1ccc(C#N)c(S(=O)(=O)Nc2cc(N3C[C@@H](C)N[C@@H](C)C3)c3occc3c2)c1 [CBK034756C]	68.0007
NC(=O)N1CCC(C(=O)N2CC3(CCCC3)c3c(F)cccc32)CC1 [CBK304973]	43.4598
CN1CCN(c2ccc(-c3cncc(N4CCN(c5ccncc5)CC4)n3)cn2)CC1 [CBK065144]	82.7199
COc1ccc(N2CCN(c3cncc(-c4cc(OC)c(OC)c(OC)c4)n3)CC2)cc1OC [CBK037988]	91.9514
CC(=O)Nc1cccc(-c2cnc3[nH]c(=O)n([C@@H](C)c4ccccc4)c3n2)c1 [CBK064159]	83.8129
O=C(O)c1ccc2c(c1)C(=O)N(c1ccc(-c3ccnc(-c4ccc(N5C(=O)c6ccc(C(=O)O)cc6C5=O)cc4)n3)cc1)C2=O [CBK261192]	93.9699
c1cc(CNc2nccnc2-c2ccsc2)ccn1 [CBK037513]	100.154
COc1ccc(-c2cc(C(=O)NCC(=O)O)c(C)o2)cc1OC [CBK287130]	98.9287
Cc1nn(C)cc1-c1cncn1CCCOc1ccc(Cl)cc1 [CBK281787]	101.271
O=C(O)c1ccc(C(=O)O)c(-c2ccccc2)c1 [CBK261102]	81.7608
CCCC(=O)Nc1ccc(C(=O)Nc2ccccc2C(=O)O)cc1 [CBK265111]	129.922
O=C(O)c1ccccc1SC1CCc2ccccc2NC1=O (stereo not drawn) [CBK286683]	71.345
Cc1ccccc1NS(=O)(=O)c1cc(C(=O)Nc2ccc(S(=O)(=O)N3CCCC3)cc2)ccc1C [CBK269004]	85.8935
Fc1ccc(OCc2nnn[nH]2)c(F)c1 [CBK269473]	93.3654
Cc1ccccc1C(=O)N/N=C/c1ccc(Sc2nnnn2-c2ccccc2)o1 [CBK263259]	97.839
O=C(N[C@H]1CO[C@H]2[C@@H]1OC[C@@H]2Nc1nccc(-c2cccs2)n1)C1CC1 [CBK289517]	70.1679
CCOC(=O)c1cnn(C2CCCN(Cc3cc(C#N)cs3)C2)c1 (stereo not drawn) [CBK305399]	88.9838
CC(C(=O)O)N1C(=O)c2ccccc2C1c1c[nH]c2ccccc12 (stereo not drawn) [CBK286576]	48.8596
CC1CCC/C(=N\NC(=O)C2C3CCCCC32)C1 (stereo not drawn) [CBK025750]	73.5956
Cc1nc(C2CCCC2)cc([C@H]2CN3CC[C@H]2C[C@@H]3CNS(C)(=O)=O)n1 [CBK289121]	111.365

SMILES	% of control remaining
CNS(=O)(=O)c1cc(C(=O)O)c(OC)cc1OC [CBK110325]	95.09
CN(C)c1ncc(Br)cc1C(=O)NCCNS(=O)(=O)c1ccccc1 [CBK076504]	90.3719
COc1cc(/C=C2\SC(=N)NC2=O)cc(Br)c1OS(=O)(=O)c1ccc(C)cc1 [CBK263609]	116.551
COc1cccc(C(=O)N2CCC(NC(=O)c3cc(F)ccc3F)CC2)c1 [CBK155026]	66.3578
O=c1cc(N2CCN(CC3(O)CCNC3)CC2)c(-c2ccccc2)n[nH]1 (stereo not drawn) [CBK307088]	37.3581
Cc1c(C)n(Cc2cccnc2)c2ncn(C3CCCCCC3)c(=N)c12 [CBK287932]	58.93
O=C(N/N=C\C=C\c1ccco1)c1ccc([N+](=O)[O-])cc1 [CBK261961]	106.711
CC(C)(C)CN1CCC(Oc2nccnc2OCc2ccc(Br)cc2F)CC1 [CBK161946]	103.468
c1ccc(Sc2nccnc2N2CCCC2)nc1 [CBK093734]	101.481
O=C(CO)N1CC2(CCN(CC3COc4ccccc4O3)CC2)c2ccccc21 (stereo not drawn) [CBK143951]	87.6705
NC(=O)Cn1cc(C(=O)c2ccncc2)c(=O)c2cc(Cl)ccc21 [CBK288584]	90.8325
N#Cc1ccc(NC(=O)CSc2cnn[nH]2)cc1 [CBK269931]	91.6334
CC(=O)Nc1ccc(S(=O)(=O)Nc2cc(C)c(-n3nc4ccccc4n3)cc2O)cc1 [CBK268382]	103.001
Clc1ccc(COc2cc(N3CCCN(Cc4ccccc4-c4ccccc4)CC3)ncn2)cc1Cl [CBK083781T]	71.4344
CNC(=O)C1(Cc2ccc(-c3ccccc3)cc2)CCN(C(=O)c2cccc(OC)c2)CC1 [CBK285788]	92.3964
CC(Oc1ccc(Cl)cc1Cl)C(=O)NCCc1cccc(Cl)c1 (stereo not drawn) [CBK265489]	96.7087
Nc1ccc(-c2nnc(SCC(=O)Nc3ccc(Br)cc3F)n2-c2ccccc2)cc1 [CBK267175]	115.397
COc1ccc(C(C)C)cc1-c1cncc(NCCc2c[nH]c3ccccc23)n1 [CBK065174]	71.7547
OC1(c2ccccc2)CCN(Cc2cncn2Cc2ccccc2)C1 (stereo not drawn) [CBK282809]	85.3967
CC(C)(CO)CNC(=O)c1cnc(-c2ccccc2)c(-c2ccncc2)c1 [CBK036734]	88.5484
CCOC(=O)C1CCCN(Cc2nnsc2Cl)C1 (stereo not drawn) [CBK304848]	43.3712
CC(C)[C@@H](CO)Nc1nccnc1-c1ccc(CN)cc1 [CBK036640]	145.76
Cc1cc(C2CCCCCN2C(=O)c2c(C)noc2C)on1 (stereo not drawn) [CBK284844]	85.6566
Cc1ccc(S(=O)(=O)Nc2ccc(Nc3cc(-c4cccc([N+](=O)[O-])c4)ncn3)cc2)cc1 [CBK090983]	115.128
COc1cccc([C@H]2CN(C(=O)c3ccccc3)[C@@H]3CCN(Cc4cccs4)C[C@H]23)c1 [CBK285609]	83.8758
COc1ccc(OC(C)C(=O)Nc2ccc(C(=O)O)cc2)cc1 (stereo not drawn) [CBK263622]	79.2529

SMILES	% of control remaining
CCOc1ccc(CN2CCN(CC(=O)Nc3cc(C)on3)CC2)cc1 [CBK306116]	39.2348
COc1ccc(N2C(=O)CC(N3CCN(c4ccc(S(=O)(=O)N5CCCC5)cc4)CC3)C2=O)cc1 (stereo not drawn) [CBK268851]	97.1951
CC#CC(=O)N1CCCC(Cc2ccc(F)cc2F)(C(=O)OCC)C1 (stereo not drawn) [CBK307051]	58.0484
CSc1ccc(-c2nc(NC(=O)C(C)C)cc3cccnc23)cc1 [CBK081262]	75.6065
COCC1CCN(C(=O)Nc2ccc(F)c(N3CCCNC3=O)c2)C1 (stereo not drawn) [CBK305487]	63.0494
CC(NC(=O)c1ccccc1Br)c1nnc(SCc2ccc([N+](=O)[O-])cc2)n1C (stereo not drawn) [CBK267810]	87.8404
CN1C[C@@H](NC(=O)c2cccnc2)C[C@H]1c1nc(-c2cccnc2)no1 [CBK288857]	103.252
CC1CC(C)CN(C(=O)CN2C(=O)N3CCN=C3c3ccccc32)C1 (stereo not drawn) [CBK283960]	103.264
COc1cc(Nc2cccc(-c3cccc(NC(C)=O)c3)n2)cc(OC)c1OC [CBK037698]	77.5777
O=C(O)c1ccccc1NC(=O)N1CCc2[nH]cnc2C1c1cccc(F)c1 (stereo not drawn) [CBK286824]	102.154
c1cc(CCNc2cc(-c3ccc4c(c3)OCO4)ncn2)ccn1 [CBK037689]	103.693
Cc1cc(NC(=O)NC2CCOc3ccccc32)no1 (stereo not drawn) [CBK304581]	23.2199
CCCN(CCc1ccc(C(F)(F)F)cc1)C1Cc2cc(OC)c(OC)cc2C1 [CBK017829C]	29.5023
O=C(CSS(=O)(=O)O)NCc1ccccc1 [CBK260897N]	112.97
Cc1cc(CN(C)Cc2ccc(-n3ccnc3C)cc2)n[nH]1 [CBK281989]	104.837
Cc1nccn1CCCn1cncc1-c1cnn(C2CCCCC2)c1 [CBK281816]	93.2227
CCN(CC)C(=O)CNS(=O)(=O)c1ccc(C)cc1 [CBK034491]	106.144
COc1ccc(C(CNCC(O)COc2cccc3c2CCCC3)c2ccccc2)cc1 (stereo not drawn) [CBK028144]	11.341
O=c1cc(CN2CCN(c3ccccc3)CC2)occ1O [CBK288392]	81.3814
O=C(C1CC1)N1CCC(c2nc(Cc3cccs3)no2)C1 (stereo not drawn) [CBK282980]	105.123
NC(=O)C1CCN(C(=O)CSc2nc3ccccc3o2)CC1 [CBK265930]	95.3318
Cc1nc2c(C(=O)NCC(F)(F)F)cnn2c(C)c1Cc1cccc(F)c1 [CBK162117]	83.9019
COc1ccc2[nH]c3c(c2c1)CCNC31CCCN(CCc2ccc(F)cc2)C1 (stereo not drawn) [CBK039246]	66.4185
CCOC(=O)[C@@]12CC=CCN(C(=O)c3cccnc3)[C@@H]1CCC2 [CBK284575]	114.899
Cc1ccc(SCC(=O)NCc2nc(-c3ccccc3)no2)cc1 [CBK269474]	83.6691
OC(CN1CCN(Cc2ccc3c(c2)OCO3)CC1)C(F)(F)F (stereo not drawn) [CBK074833]	67.2673
